Laboratory results: PubChem BioAssay AID1508624 (National Center for Advancing Translational Sciences (NCATS), 2021)
In all, about 48,000 compounds went through this assay and about 120 (0.25%) were called active. Not shown: some 4% with an inconclusive outcome. The call rests on the fitted dose curve; in most records, active means well fitted activation curve with a large enough effect; inconclusive means small, poorly fitted or top-dose-only effect, or another doubt; inactive means no such curve, though single readings can be large or run the other way. The list shows a part of the results.

assay: Primary qHTS for Identification of Small Molecule Activators of Huntingtin-Antisense Promoter Activity; details: HEK293 HTT-AS promoter firefly luciferase reporter, 24 h; series mostly up to 57.5 µM; activity change, positive = activation: at the top concentration; further: nearly all actives have a fitted effect of over 55% in size
How it was run: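 HEK293 luciferase promoter-reporter cells (2,500/well) plated 24 h, then compounds added at up to 57.5 uM final for 24 h at 37 °C. Firefly luminescence by Dual-Glo, normalized to vehicle (0%) and zero RLU (-100%).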

Activity change, positive = activation, inactive:
CCOc1ccc(CCNC(=O)C2CCC(CNS(=O)(=O)c3ccc(Cl)cc3)CC2)cc1OCC (configuration not stated) -30.2%
COc1cccc(-n2cc(C(=O)Nc3cc(C)c(Cl)cc3OC)c3ccccc3c2=O)c1 -23.7%
CCOc1ccc(CNC(=O)C2CCN(c3nn4c(=O)cc(C)nc4s3)CC2)cc1 -16.5%
CO[C@H]1C=CO[C@@]2(C)Oc3c(C)c(O)c4c(O)c(c(C=NN5CCN(C)CC5)c(O)c4c3C2=O)NC(=O)C(C)=CC=C[C@H](C)[C@H](O)[C@@H](C)[C@@H](O)[C@@H](C)[C@H](OC(C)=O)[C@H]1C -6.65% [at 19.1 µM, percent change from vehicle, -100% = no light]
CC1(C)O[C@@H]2C[C@H]3[C@@H]4C[C@H](F)C5=CC(=O)C=C[C@]5(C)[C@@]4(F)[C@@H](O)C[C@]3(C)[C@]2(C(=O)CO)O1 -6.46%
CCOCCCNC(=O)c1cc2c(=O)[nH]c3ccccc3c2n1C 0.166%
Cc1ccc(C)c(CN2C(=O)CSc3ccc(C(=O)NCCc4ccc(Cl)cc4)cc32)c1 -12.9%
Clc1ccc(CNc2cc(-c3ccccc3)nc3nncn23)cc1 -34.9%
O=C(Nc1cccc(C(F)(F)F)c1)Nc1nnc(N2CCCCC2)s1 22.3%
N#Cc1c(Nc2cccc(F)c2)sc(C(=O)c2ccc(Cl)cc2)c1N 3.99%
CCN(c1ccccc1)S(=O)(=O)c1ccc2[nH]cc(C(=O)NCc3ccc(C)cc3)c(=O)c2c1 0.741%
Cc1cc(C)nc(NS(=O)(=O)c2ccc(N)cc2)n1 -3.85%
Cc1c(-c2ccc(Cl)cc2)c(=O)oc2c(CN3CCCC3)c(O)ccc12 -19.6%
COc1ccc(N2CC(NC(=O)c3ccc(OC(C)C)cc3)CC2=O)cc1 (configuration not stated) -2.63%
COc1ccccc1CNC(=O)CN1C(=O)CCn2nc(-c3ccccc3)cc21 -20.9%
COc1ccc(-c2nc3sc(CCNS(=O)(=O)c4ccc(F)c(C)c4)c(C)n3n2)cc1 -18%
Cc1ccc(OCC(=O)Nc2ccc3nc(Nc4cccc(Cl)c4)cc(C)c3c2)cc1 -4.09%
CCOc1ccc(S(=O)(=O)NCCc2sc3nc(-c4ccc(C)cc4)nn3c2C)cc1 -27.1%
Cc1cc(C)cc(-n2ccn(Cc3ccc(F)cc3)c(=O)c2=O)c1 -12.9%
COc1cc([C@@H]2c3cc4c(cc3[C@@H](O[C@@H]3O[C@@H]5CO[C@@H](C)O[C@@H]5[C@H](O)[C@@H]3O)[C@H]3COC(=O)[C@H]23)OCO4)cc(OC)c1O -38.3%
CCCn1c(CCC(=O)Nc2ccccc2OC)nc2cccnc21 5.07%
COc1ccc2oc(-c3cccc(NC(=O)c4sc5c([N+](=O)[O-])cccc5c4Cl)c3)nc2c1 -14.8%
O=c1c2sc3ccccc3c2n(Cc2cccc(C(F)(F)F)c2)c(=O)n1Cc1ccc(F)cc1 -10.8%
COc1ccc(NC(=O)CC2C(=O)N(c3cccc(OC)c3)C(=O)N2Cc2ccc3c(c2)OCO3)cc1 (configuration not stated) 0%
COc1cccc2c1C(=O)c1c(O)c3c(c(O)c1C2=O)C[C@@](O)(C(=O)CO)C[C@@H]3O[C@H]1C[C@H](N)[C@H](O[C@@H]2CCCCO2)[C@H](C)O1 -33.8%
CCCCOC(=O)c1ccc(Nc2nnc(-n3nc(C)cc3C)c3ccccc23)cc1 -22.8%
Cc1nnc2c3ccccc3nc(Nc3cccc(O)c3)n12 -5.73%
CCOC(=O)c1ccc(NC(=O)c2nc(SCc3ccccc3F)ncc2Cl)cc1 -31.3%
COc1ccc(-c2noc(CSc3nc(N)cc(=O)[nH]3)n2)cc1OC -35.1%
O=C(NC1CC(=O)N(c2ccc(Cl)cc2)C1)c1ccc(S(=O)(=O)N2CCOCC2)cc1 (configuration not stated) -28.2%
COc1cc(C2C(C(=O)Nc3ccccc3)=C(C)Nc3nnnn32)cc(OC)c1OC (configuration not stated) -14.9%
COc1ccc(-c2noc(CN(C(=O)c3cc(OC)c(OC)cc3OC)C(C)C)n2)cc1 -22.1%
CCOc1ccc2nc(N3CCCC(C(=O)NCc4ccccc4OC)C3)sc2c1 (configuration not stated) 20.7%
Cc1ccc(Cl)cc1NC(=O)C1CCN(c2nc3ccccc3n3cccc23)CC1 -14%
CCCn1c2ccccc2c2cnn(CC(=O)NCCc3ccc(C)cc3)c(=O)c21 -16.4%
CCOc1ccc(S(=O)(=O)Nc2cc(Cl)ccc2OC)c2cccnc12 -27.6%
Cc1nc(C(=O)NCC(=O)O)c(O)c2ccc(Oc3ccccc3)cc12 3.05%
Cc1ccc(/C=C/c2onc(C)c2S(=O)(=O)N2CCC(C(=O)Nc3cc(F)ccc3F)CC2)cc1 -34.6%
CC(=O)Nc1ccn(C2COC(COC(=O)c3ccccc3)O2)c(=O)n1 (configuration not stated) -17.8%
COCCn1c(=O)[nH]c2cc(C(=O)Nc3cccc(C(C)=O)c3)ccc2c1=O -15.1%
COc1ccc(Nc2oc(/C=C/c3ccc(OC)c(OC)c3)nc2C#N)cc1 -10.3%
Cc1ccc(CN2CCCn3nc(C(=O)NCC(C)c4ccccc4)cc3C2=O)cc1 (configuration not stated) -17.3%
CCc1nn(CC(=O)NCCCOC)c(=O)c2cc3ccccc3n12 -4.3%
Cc1cc(C)c2oc(C(=O)Nc3ccc(S(=O)(=O)Nc4nccc(C)n4)cc3)cc(=O)c2c1 -3.41%
Cc1ccc(NC(=O)c2c(NC(=O)c3ccccc3)sc3c2CCC3)cc1 10.3%
CC1CCc2c(sc(NC(=O)c3cc(-c4ccc(F)cc4)on3)c2C(N)=O)C1 (configuration not stated) 1.2%
Cc1ccc2sc(N(Cc3cccnc3)C(=O)C3COc4ccccc4O3)nc2c1C (configuration not stated) -3.83%
CCc1ccc(CN(C(=O)c2cc(=O)c3ccc(C)cc3o2)C2CCS(=O)(=O)C2)cc1 (configuration not stated) -14.7%
CC(C)Cn1c(=O)c2sccc2n2c(CCCC(=O)NC3CCCCC3)nnc12 7.04%
CCN(CC)CCNC(=O)c1ccc(-n2c(-c3ccccc3)cc3c2CCCC3)cc1 18.1%
COc1cccc(CNC(=O)CCCn2nc(C)c3c(C)n(-c4ccc(C)cc4)nc3c2=O)c1OC -4.27%
Cc1cc(C)cc(NC(=O)C2CCN(S(=O)(=O)c3cccc(-c4noc(C)n4)c3)CC2)c1 -36.4%
COc1ccc(S(=O)(=O)c2nnn(-c3ccc(C)c(Cl)c3)c2C)cc1 -38.9%
CC1=Nc2cc(C(=O)NC(C)C)ccc2Sc2ccc(C)cc21 -33.3%
Fc1ccc(Br)cc1C1C=C(c2ccc(Br)cc2)Nc2nnnn21 (configuration not stated) -25.2%
Cc1ccc(CNC(=O)CCCN2C(=O)COc3ccc(C)cc32)cc1 13.6%
Cc1cccc(NC(=O)C(=O)NCCc2csc(-c3ccc(C(F)(F)F)cc3)n2)c1C -3.94%
